The list shows a part of the results.
T1: UNK ZnF1-3 (human, UniProt Q9C0B0 31-174)
T1 sequence: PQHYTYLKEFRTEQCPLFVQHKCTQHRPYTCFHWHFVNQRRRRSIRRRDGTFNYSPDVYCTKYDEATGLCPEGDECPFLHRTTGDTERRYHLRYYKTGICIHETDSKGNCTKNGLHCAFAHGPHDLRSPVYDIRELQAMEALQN

B1: chr16:94664741:94664742:+_ENSMUSG00000040785_ENSMUST00000117648|mus_hu|mus_mus_mus_hu_False|8_48 (ssRNA)
RNA: GGGAGUUCUACAGUCCGACGAUCUGGUACUGAUCUUGGUAGCUGAUAUUCAGGAGAAAGGCUGGCCAAGGGUGUAUAUAUGCUGGUGAACUGCGACAAACCUGGUAACACGUUUAUGUAUGCUGGCCGCUGGGUGAUGAUAUCCAACAGAGGAUUGAGCAUCA
B2: chr14:78894897:78894898:-_ENSMUSG00000022016_ENSMUST00000123853|mus_mus|motif|central (ssRNA)
RNA: GGGAGUUCUACAGUCCGACGAUCAUUUAAUGUUAAUAGUGGUUUUCUAACUAAGAAAACACUAAAGUAAAAGAAUAAACGGGUGGGAAGGUUAAAGUUUAUCCUCUCACGCACGCGCACACACACACACACACACAUUCUCUCCAACAGAGGAUUGAGCAUCA
B3: chr1:230810825:230810826:+_ENSG00000135775_ENST00000366669|hu_mus|FALSE|FALSE (ssRNA)
RNA: GGGAGUUCUACAGUCCGACGAUCUUUCUGGUGAAAGGCGUCUGGGUCCCCAGGGUUGAAGAGCGAGGGUAGCUUUUCCUCUAGGCCUCGAACUAUUUCUGGCCACACAGAAUUCACCAAGAAAUCAUAGCCAGGAACGAUAGUCAACAGAGGAUUGAGCAUCA
B4: chr17:42882304:42882305:-_ENSG00000182963_ENST00000426548|hu_mus|FALSE|FALSE (ssRNA)
RNA: GGGAGUUCUACAGUCCGACGAUCCUUGUAGGCAAUCUUAGCAUUGGACAGCUCAGUGUACUGGAUCUGAUCUGGUUUGACAGCAAUGUUAUAGCCAGGGGGAGCAGAGGGUGUGUUCCAAGUGAAAGGAUAAUUAUAAGCACCCAACAGAGGAUUGAGCAUCA
B5: 123077761_123079139_649_CDS_ENSMUSG00000028114_ENSMUST00000029759|mouse|control|control (ssRNA)
RNA: GGGAGUUCUACAGUCCGACGAUCCAAUUCUCUGAUGUCAAAGGCUUCUAUGUCUGCUUGUAAGUACAUGGGAGGAGUGUUUGACUUAGCUAUUAACUCAUCCUUUAGUCUGAUGAGUUCCCUAAGUUUAGGGUAUUCUUCAAACAACAGAGGAUUGAGCAUCA
B6: chr13:100192284:100192285:-_ENSMUSG00000052727_ENSMUST00000064762|mus_mus|motif|central (ssRNA)
RNA: GGGAGUUCUACAGUCCGACGAUCUGGUAAAAUUUCCAUUAGCAAAUGAUUAAAUUUAUAAAACGAGUAUUAGAAAGCUCCGGAAUUUCAUAAGCUAUUGGAAACACUUAAAACAUUCAUAUACACUGGGGAAACCAUUCACUACAACAGAGGAUUGAGCAUCA
B7: chrX:112058718:112058719:-_ENSG00000126016_ENST00000371959|hu_hu|FALSE|FALSE (ssRNA)
RNA: GGGAGUUCUACAGUCCGACGAUCAACCAUCUGCUGGGCUCUGGAAACAAUGGCAAAAGGGUCUGCUGGCACUGGCUGAUAAGAAGCAGAGGAUGGCUGAGCCCGAGGCAUAGCUGAAUAGGCUUCUCCUGGCUGCUGCUGUGGCAACAGAGGAUUGAGCAUCA
B8: chr2:90693216:90693217:+_ENSMUSG00000027282_ENSMUST00000136872|mus_hu|motif|central (ssRNA)
RNA: GGGAGUUCUACAGUCCGACGAUCCUCCUUGAUAACGUGGUCAAAGGAAGAUGAGACUUCUUUCUGUACAUUUCCAGGUCCGGACUCCUGUAAAACUUUACCAUGGACCACAGUUCCAAGGACUCCCGAACACAGUCUUGGAGUCAACAGAGGAUUGAGCAUCA
B9: 123022165_123022285_73_3pUTR_ENSMUSG00000025786_ENSMUST00000026892|mouse|control|control (ssRNA)
RNA: GGGAGUUCUACAGUCCGACGAUCCCCAGCCGCCAGCGUCCGCGAUGGCACGGGCACCCGGCGCCACGGCUUGCCGGACUCGGCCUCACACGGGGCGGUGCGAAGGAGAAGCCCAUGGAGCUCCAGGCGGUGGCGGCAGCCGCGCAACAGAGGAUUGAGCAUCA
B10: chr6:29491266:29491267:-_ENSMUSG00000012535_ENSMUST00000012679|mus_mus|motif|central (ssRNA)
RNA: GGGAGUUCUACAGUCCGACGAUCGGGUUGGGCUCUACAUUAAAAGCAACUUUGACCCUGGCUAGUCCGGACUAUCAUCCCGGACCAUGAUAUAAGCAGACCAGGCUCCUUGUCUGGACAUUUCUAAAGGUGAACAGUUGGGGGCAACAGAGGAUUGAGCAUCA
B11: chr2:68236527:68236528:-_ENSMUSG00000027030_ENSMUST00000102715|mus_hu|FALSE|FALSE (ssRNA)
RNA: GGGAGUUCUACAGUCCGACGAUCCAUUGAACCUCCACUUAGUAAUUUCAUGACCAGCCAAAGUUCAUCUUUGACCACAAAAGAGGUGUAAUAGGUCACUACGUUGGGAUGGCUGCACUGACUCAUGGCUUGAAUUUCUUUUAACAACAGAGGAUUGAGCAUCA
B12: chr11:122931392:122931393:-_ENSG00000109971_ENST00000227378|hu_hu|FALSE|FALSE (ssRNA)
RNA: GGGAGUUCUACAGUCCGACGAUCUGUCAGAACCAUAGAAGACACCUCCUCUGGAUAGAAGCUUUUGGUCUCUCCCUUGUAUUCUACUUGGACCUUGGGCCUGCCAGCAUCAUUCACCACCAUAAAGGGCCAAUGUUUCAUAUCCAACAGAGGAUUGAGCAUCA
B13: 49671451_49671571_1540_CDS_ENSG00000102935_ENST00000562871|human|control|control (ssRNA)
RNA: GGGAGUUCUACAGUCCGACGAUCCUGGAUGUGCUCGGUGAGGGAGGACUCAGUAAGGAAACCCAUGGAGCACUGGUUGCAGAAGAAAGCAUUAUUACCGUCAGAGGGGUUGGCGUUGGGGCCGCAGUGGGAGACGCGGAUGUGCAACAGAGGAUUGAGCAUCA
B14: chr8:63386198:63386199:+_ENSMUSG00000038005_ENSMUST00000037190|mus_mus|FALSE|FALSE (ssRNA)
RNA: GGGAGUUCUACAGUCCGACGAUCGGUCCCACUUCAAAGCACUGCACUAACAGGGCAGCUUGUUCAUCCUGCAAGCUGGUCUAUGUUCUCUUCACUUCUGCUUGCCAGAUGAUCUUCAAUAAUUUUUGCAAACAGAUCCCUCUUCAACAGAGGAUUGAGCAUCA
B15: chrX:153986339:153986340:-_ENSMUSG00000046873_ENSMUST00000058098|mus_hu|FALSE|FALSE (ssRNA)
RNA: GGGAGUUCUACAGUCCGACGAUCAGGGACACAAAGACCCUCCAAGUUAUUUUUUUAUGUGAACAUAUAUUUACAGUAAAUAUUCAAUAAUACUUUUUACAGCUUACUUAAAUAGAAACAUGCUUUUUCUAAUCCAUAAAUAACCAACAGAGGAUUGAGCAUCA
B16: chr11:74329583:74329584:+_ENSG00000077514_ENST00000263681|hu_hu|FALSE|FALSE (ssRNA)
RNA: GGGAGUUCUACAGUCCGACGAUCAGACGAAGAGGAUUCAGCAGGAGCUCUAGGGACGGCAGCUGCACAUUGUAUAGCACUAAAUUUGCUGCAGUUCUGCAAGUUGCUUUUAAGGAUGUCAUAGUCAGUAUUGAACAGAGGCCCCAACAGAGGAUUGAGCAUCA
B17: chr12:103220247:103220248:+_ENSMUSG00000041781_ENSMUST00000047357|mus_hu|motif|central (ssRNA)
RNA: GGGAGUUCUACAGUCCGACGAUCCAGGGAAUCAAUAAUAUCCAUAGAAAAGUGCUCAUCCCAGCCACAGUCCAAUAAAAAUCGGAACUCAUCAACUUGGAGAAGAUAGCAAAGGGCAGAUUCUUCUUGGACCCCAGAAAGGGUCAACAGAGGAUUGAGCAUCA
B18: chr16:45382771:45382772:-_ENSMUSG00000022661_ENSMUST00000163230|mus_mus|mus_mus_mus_hu_True|1_108 (ssRNA)
RNA: GGGAGUUCUACAGUCCGACGAUCCUGAGUGUUAUUGUAAGACAAAUGGACAGGGAGGGCAUGCUUCUCAAAAAAUGUGAGCUAUUGUCUAAGACUAACAAUAUUUAUCUAGCUAUAAAAAUAAGUUAAAUGAAUAAACAUUACCAACAGAGGAUUGAGCAUCA
B19: chr7:54825262:54825263:-_ENSG00000132432_ENST00000352861|hu_hu|hu_hu_hu_mus_False|68_88 (ssRNA)
RNA: GGGAGUUCUACAGUCCGACGAUCCUGCCGGCUGGGCUCCACAAACUUUACCUGAUCAUCCAUGUUUUACCCAACCGGGAUUGAGAGCGUAGAGACACGUAGCUCAGGAGAGAACCGAGCCCAACGGAACCGGAAGCUGGCAACCAACAGAGGAUUGAGCAUCA
B20: chr4:25749455:25749456:-_ENSG00000091490_ENST00000264868|hu_hu|hu_hu_hu_mus_False|28_68 (ssRNA)
RNA: GGGAGUUCUACAGUCCGACGAUCGCACUAUGACCUCUAGAAAAAUCCACAGGGGGAAAAAAUGUAAACCAAUUUACAAUGUUAUCGCCUUCCCUGUGUGUGGAGUGACAAACAAUUGGCUCCUUCUAGCUGCUGGAUUUGGGACAACAGAGGAUUGAGCAUCA
B21: chrX:71549400:71549401:+_ENSMUSG00000019087_ENSMUST00000019231|mus_hu|mus_mus_mus_hu_False|48_78 (ssRNA)
RNA: GGGAGUUCUACAGUCCGACGAUCGCAGUAGGAAGAGGGAAGCUCUUCAGUCCAGUGGUCACAAAACUGGGAAAGCAACAACACGGAACCAAUACUCCCCUCAACCCCCCCACUGGCACAGGGUCACACAAUCUGGGUCAAAGACAACAGAGGAUUGAGCAUCA
B22: 100042488_100045678_4628_CDS_ENSMUSG00000023026_ENSMUST00000100203|mouse|control|control (ssRNA)
RNA: GGGAGUUCUACAGUCCGACGAUCCAGGGCUUCCUGUUCAGAGCCGCAUAGUUCCACAACGACCACCAGCAAGUUGGUCCACGUGAACACAGCACAUUCAGCAAUGCUCCUGUGGACGCGGGACACGGAGGUCUCUAUAUCGAUCAACAGAGGAUUGAGCAUCA

The binders below were run against T1, UNK ZnF1-3 (assay: nsRBNS (natural sequence RNA bind-n-seq); RBNS binding buffer (assumed for nsRBNS): 25 mM Tris pH 7.5, 150 mM KCl, 3 mM MgCl2, 0.01% Triton X-100, 500 ug/ml BSA, 20 U/ml SUPERase-In, 4 C; UNK is unkempt and MSI1 is Musashi-1; names of the RNAs are library labels; protein concentration not given here; high values mean tight binding).
For B1, the binding signal was 1.12 enrichment R.
For B2, the binding signal was 0.999 enrichment R.
B3 was tested, and the binding signal was 0.872 enrichment R.
Binder B4 has a binding signal of 1.1 enrichment R.
Work on B5 yielded a binding signal of 0.626 enrichment R.
B6 was tested, and the binding signal was 2.32 enrichment R.
B7 gave a binding signal of 1.68 enrichment R.
In the case of B8, the binding signal is reported as 0.748 enrichment R.
Work on B9 yielded a binding signal of 0.656 enrichment R.
Work on B10 yielded a binding signal of 1.43 enrichment R.
B11 was tested, and the binding signal was 0.891 enrichment R.
B12 was tested, and the binding signal was 1.16 enrichment R.
B13 was tested, and the binding signal was 2.33 enrichment R.
Binder B14 has a binding signal of 0.845 enrichment R.
B15 gave a binding signal of 0.28 enrichment R.
B16 gave a binding signal of 1.58 enrichment R.
B17 gave a binding signal of 1.62 enrichment R.
With B18 the binding signal was 1.79 enrichment R.
B19 was tested, and the binding signal was 1.11 enrichment R.
For B20, the binding signal was 0.989 enrichment R.
For B21, the binding signal was 2.34 enrichment R.
B22 was tested, and the binding signal was 0.446 enrichment R.

From paper PMC12136788
